PubChem BioAssay (NCATS)
“And” between values parts separate entries of the source, which are not always exact repeats. Equal entries are not always repeated. The shares of active, inactive and inconclusive entries below differ from those in the screen. For some of these results: Potencies beside an inconclusive call are fits to weak or partial responses and may not hold up. The source made the active and inactive calls. Calls come from the whole dose curve; as a rule, active = well fitted curve in the direction sought with a large enough effect; inconclusive = small, poorly fitted or top-dose-only effect, or another doubt; inactive = no such curve, though single readings can be large; an effect the other way counts as inactive or inconclusive.

Tests used:
[1] = P-glycoprotein substrates identified in KB-8-5-11 adenocarcinoma cell line, qHTS therapeutic library screen (AID 1346987); note: nearly all actives have a fitted effect of over 65% in size
In short: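 In this qHTS, P-gp-rich KB-8-5-11 cells received library compounds across a concentration range. Viability was quantified by luminescence after 72 h at 37 degree C.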

CRL-7250 = normal cell line; assay: Cytotoxic Profiling of Annotated Libraries Using Quantitative High-Throughput Screening (AID 1296008); conditions: Five cell lines viability, CellTiter-Glo ATP luminescence, 48-72 h; max response: stronger effect = lower value; note: nearly all actives have a fitted effect of over 60% in size; for max response: % is set by controls: 0 for no effect and ±100 for the full control effect
In short: (§1)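 Compounds were pin-transferred onto cells and incubated 48 or 72 hr at 37 degree Celsius, 95% humidity. CellTiter-Glo was added, plates sat 10 min at room temperature, then ATP-coupled luminescence was imaged as the viability read-out.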

HEK293 = assay: as above; conditions: Five cell lines viability, CellTiter-Glo ATP luminescence, 48-72 h; max response: stronger effect = lower value
In short: as §1

HaCat = assay: as above; conditions: Five cell lines viability, CellTiter-Glo ATP luminescence, 48-72 h; max response: stronger effect = lower value
In short: as §1

KB-3-1 = assay: as above; conditions: Five cell lines viability, CellTiter-Glo ATP luminescence, 48-72 h; max response: stronger effect = lower value
In short: as §1

NIH3T3 = assay: as above; conditions: Five cell lines viability, CellTiter-Glo ATP luminescence, 48-72 h; max response: stronger effect = lower value
In short: as §1

CAOV3 = assay: Primary qHTS to identify gynecologic anti-cancer compounds using libraries of approved drugs and bioactive compounds (AID 1345084); conditions: Gynecologic cancer cell panel viability, ATPlite luminescence, 48 h; series mostly up to 57.5 µM; note: nearly all actives have a fitted effect of over 55% in size; for activity change, negative = cytotoxicity: % is set by controls: 0 for no effect and ±100 for the full control effect
In short: (§2)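 48 h compound exposure at 37 C, 5% CO2; five-point qHTS. ATPlite luminescence readout of cell ATP.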

HeLa = assay: as above; conditions: Gynecologic cancer cell panel viability, ATPlite luminescence, 48 h; series mostly up to 57.5 µM
In short: as §2

SKOV3 = assay: as above; conditions: Gynecologic cancer cell panel viability, ATPlite luminescence, 48 h; series mostly up to 57.5 µM
In short: as §2

[2] = Primary qHTS for inhibitors of nuclear receptor binding SET domain protein 2 (NSD2) in an RCH-ACV wild type WT cells (2C) (AID 1645877); conditions: activity change, negative = cell killing: at 44.9 µM (top of the series); note: nearly all actives have a fitted effect of over 70% in size
CASKI = assay: Primary qHTS to identify gynecologic anti-cancer compounds using libraries of approved drugs and bioactive compounds (AID 1345084); conditions: Gynecologic cancer cell panel viability, ATPlite luminescence, 48 h; activity change, negative = cytotoxicity: at 57.5 µM (top of the series); note: nearly all actives have a fitted effect of over 55% in size; for activity change, negative = cytotoxicity: % is set by controls: 0 for no effect and ±100 for the full control effect
In short: as §2

Es-2 = assay: as above; conditions: Gynecologic cancer cell panel viability, ATPlite luminescence, 48 h; series mostly up to 57.5 µM
In short: as §2

Hek293T = assay: as above; conditions: Gynecologic cancer cell panel viability, ATPlite luminescence, 48 h, control line for the selectivity index; series mostly up to 57.5 µM
In short: as §2

PA-1 = assay: as above; conditions: Gynecologic cancer cell panel viability, ATPlite luminescence, 48 h; series mostly up to 57.5 µM
In short: as §2

Tov-21-G = assay: as above; conditions: Gynecologic cancer cell panel viability, ATPlite luminescence, 48 h; activity change, negative = cytotoxicity: at 57.5 µM (top of the series)
In short: as §2

Tov112D = assay: as above; conditions: Gynecologic cancer cell panel viability, ATPlite luminescence, 48 h; activity change, negative = cytotoxicity: at 57.5 µM (top of the series)
In short: as §2

C33A = assay: as above; conditions: Gynecologic cancer cell panel viability, ATPlite luminescence, 48 h; series mostly up to 57.5 µM
In short: as §2

JEG-3 = assay: as above; conditions: Gynecologic cancer cell panel viability, ATPlite luminescence, 48 h; series mostly up to 57.5 µM
In short: as §2

OV90 = assay: as above; conditions: Gynecologic cancer cell panel viability, ATPlite luminescence, 48 h; series mostly up to 57.5 µM
In short: as §2

[3] = Primary qHTS for inhibitors of nuclear receptor binding SET domain protein 2 (NSD2) in an isogenic RCH-ACV NSD2 p.E1099K mutant (9B) (AID 1645876); note: nearly all actives have a fitted effect of over 70% in size
Potency is the fitted concentration of half-maximal effect; tags give direction and shape of the fitted curve.

Cc1nc(Nc2cnn(C3CCNCC3)c2)nc2c1N(C)C(=O)c1cc3ccccc3cc1N2C
Potency [1]: inconclusive: 29.1 µM [inhibitor, single point] | Potency (CRL-7250): inconclusive: 23.1 µM [inhibitor, single point] | Potency (HEK293): active: 25.9 µM | Potency (HaCat): inconclusive: 5.8 µM [inhibitor, single point] | Potency (KB-3-1): inconclusive: 2.91 µM [inhibitor, full curve] | Potency (NIH3T3): inconclusive: 14.6 µM [inhibitor, partial curve] | Potency (CAOV3): inconclusive: 11.2 µM [cytotoxic, partial curve, poor fit] | Potency (HeLa): inconclusive: 22.4 µM [cytotoxic, single point] | Potency (SKOV3): inconclusive: 4.47 µM [rising, single point]

COc1cc2ncnc(Nc3ccc(Oc4ccccc4)cc3)c2cc1OC
Potency [1]: inconclusive: 16.4 µM [inhibitor, single point] | Potency [2]: inconclusive: 2.3 µM [inhibitor, full curve] | Potency (CRL-7250): inconclusive: 18.4 µM [inhibitor, single point] | Potency (HEK293): inconclusive: 29.1 µM [inhibitor, single point] | Potency (HaCat): active: 7.31 µM | Potency (KB-3-1): inconclusive: 20.6 µM [inhibitor, single point] | Potency (NIH3T3): inconclusive: 25.9 µM [inhibitor, single point] | Potency (CAOV3): active: 31.6 µM | Potency (CASKI): inconclusive: 22.4 µM [cytotoxic, partial curve, poor fit] | Potency (Es-2): inconclusive: 39.8 µM [cytotoxic, single point] | Potency (HeLa): inconclusive: 22.4 µM [cytotoxic, partial curve] | Potency (Hek293T): inconclusive: 39.8 µM [cytotoxic, single point] | Potency (PA-1): inconclusive: 39.8 µM [cytotoxic, single point] | Potency (SKOV3): active: 28.2 µM | Potency (Tov-21-G): inconclusive: 8.91 µM [cytotoxic, partial curve] | Potency (Tov112D): inconclusive: 20 µM [cytotoxic, partial curve, poor fit]

Cc1cnc(Nc2ccc(CN3CCOCC3)cc2)nc1Nc1cccc(S(=O)(=O)NC(C)(C)C)c1
Potency [2]: active: 1.05 µM and active: 515 nM | Potency (CRL-7250): active: 3.32 µM and active: 4.61 µM | Potency (HEK293): inconclusive: 13.2 µM [inhibitor, partial curve, poor fit] | Potency (HaCat): active: 2.64 µM and active: 2.31 µM | Potency (KB-3-1): active: 4.18 µM and active: 1.46 µM | Potency (C33A): inconclusive: 17.8 µM [cytotoxic, partial curve] | Potency (CAOV3): active: 7.94 µM | Potency (CASKI): active: 8.91 µM | Potency (Es-2): inconclusive: 1.78 µM [cytotoxic, partial curve, poor fit] | Potency (Hek293T): inconclusive: 20 µM [cytotoxic, partial curve, poor fit] | Potency (JEG-3): active: 17.8 µM | Potency (OV90): active: 22.4 µM | Potency (SKOV3): active: 7.08 µM | Potency (Tov-21-G): active: 2.24 µM | Potency (Tov112D): active: 5.01 µM

COC1CCN(c2cccc(-c3cc(NC(C)=O)nc(-n4nc(C)cc4C)n3)n2)CC1
Potency [1]: active: 20.6 µM | Potency [3]: active: 20.5 µM | Potency (CRL-7250): inconclusive: 29.1 µM [inhibitor, single point] | Potency (HEK293): active: 9.2 µM | max response (HaCat): inactive: -6.53% | Potency (KB-3-1): inconclusive: 16.4 µM [inhibitor, single point] | Potency (NIH3T3): inconclusive: 20.6 µM [inhibitor, single point] | Potency (Hek293T): inactive | Potency (JEG-3): inactive | Potency (SKOV3): inconclusive: 25.1 µM [cytotoxic, partial curve, poor fit]

CC[C@]12CCCN3CCc4c(n(c5ccccc45)C(=O)C1)[C@@H]32
Potency [1]: active: 5.56 µM and active: 5.8 µM | Potency [2]: active: 5.96 µM and inconclusive: 6.49 µM [inhibitor, full curve, poor fit] | Potency (CRL-7250): inconclusive: 21.1 µM [inhibitor, single point] | Potency (HEK293): inconclusive: 29.1 µM [inhibitor, single point] | Potency (HaCat): inconclusive: 33.5 µM [inhibitor, single point] | Potency (KB-3-1): inconclusive: 14 µM [inhibitor, single point] | Potency (NIH3T3): inconclusive: 20.6 µM [inhibitor, single point] | Potency (CAOV3): inconclusive: 3.98 µM [cytotoxic, single point] and inconclusive: 22.4 µM [cytotoxic, single point] | Potency (CASKI): inconclusive: 35.5 µM [cytotoxic, single point] and inconclusive: 25.1 µM [cytotoxic, single point] | Potency (Es-2): inconclusive: 39.8 µM [cytotoxic, single point] | Potency (HeLa): inconclusive: 39.8 µM [cytotoxic, single point] | Potency (Hek293T): inconclusive: 39.8 µM [cytotoxic, single point] | Potency (JEG-3): inconclusive: 25.1 µM [cytotoxic, single point] | Potency (PA-1): inconclusive: 39.8 µM [cytotoxic, single point] | Potency (SKOV3): inconclusive: 25.1 µM [cytotoxic, single point] and inconclusive: 20 µM [cytotoxic, partial curve, poor fit] | Potency (Tov-21-G): inconclusive: 28.2 µM [cytotoxic, single point] and inconclusive: 39.8 µM [cytotoxic, single point]

CC(C)c1cc(C(=O)N2Cc3ccc(CN4CCN(C)CC4)cc3C2)c(O)cc1O
Potency [1]: inconclusive: 187 nM [inhibitor, full curve] and active: 92 nM | Potency [2]: active: 129 nM and active: 166 nM | Potency (CRL-7250): active: 0.935 µM | Potency (HEK293): active: 105 nM and active: 58 nM | Potency (HaCat): active: 264 nM and active: 206 nM | Potency (KB-3-1): inconclusive: 0.105 µM [inhibitor, full curve] | Potency (NIH3T3): active: 418 nM and active: 291 nM | Potency (C33A): inconclusive: 0.398 µM [cytotoxic, full curve] | Potency (CAOV3): active: 3.98 µM | Potency (CASKI): inconclusive: 0.398 µM [cytotoxic, full curve] | Potency (Es-2): inconclusive: 1.12 µM [cytotoxic, full curve] | Potency (HeLa): inconclusive: 0.141 µM [cytotoxic, full curve, poor fit] | Potency (Hek293T): inconclusive: 0.316 µM [cytotoxic, full curve] | Potency (JEG-3): inconclusive: 0.708 µM [cytotoxic, full curve, poor fit] | Potency (OV90): active: 0.501 µM | Potency (SKOV3): inconclusive: 1.12 µM [cytotoxic, full curve, poor fit] | Potency (Tov-21-G): active: 0.355 µM | Potency (Tov112D): inconclusive: 0.631 µM [cytotoxic, full curve]

Cc1[nH]c2ccc(F)cc2c1-c1nc2c3cccnc3c3ncccc3c2[nH]1
Potency [1]: inconclusive: 3.66 µM [inhibitor, full curve] | Potency (CRL-7250): active: 3.66 µM | Potency (HEK293): active: 4.61 µM | Potency (HaCat): inconclusive: 18.4 µM [inhibitor, single point] | Potency (KB-3-1): inconclusive: 6.51 µM [inhibitor, partial curve] | Potency (NIH3T3): active: 14.6 µM | Potency (C33A): inconclusive: 8.91 µM [cytotoxic, full curve] | Potency (CAOV3): active: 3.98 µM | Potency (CASKI): inconclusive: 8.91 µM [cytotoxic, full curve] | Potency (Es-2): active: 14.1 µM | Potency (Hek293T): inconclusive: 25.1 µM [cytotoxic, single point] | Potency (OV90): active: 5.62 µM | Potency (PA-1): active: 7.94 µM | Potency (SKOV3): inconclusive: 10 µM [cytotoxic, partial curve, poor fit]

C=C1C(=O)O[C@H]2C[C@@H](C)[C@@H]3CCC(=O)[C@@]3(C)C[C@H]12
Potency [1]: inconclusive: 18.4 µM [inhibitor, single point] | Potency [2]: active: 3.65 µM | Potency (CRL-7250): inconclusive: 14.6 µM [inhibitor, partial curve, poor fit] | Potency (HEK293): active: 6.51 µM | Potency (HaCat): inconclusive: 29.1 µM [inhibitor, single point] | Potency (KB-3-1): inconclusive: 18.4 µM [inhibitor, single point] | Potency (NIH3T3): inconclusive: 16.4 µM [inhibitor, partial curve] | Potency (C33A): inconclusive: 14.1 µM [cytotoxic, partial curve, poor fit] | Potency (CAOV3): inconclusive: 22.4 µM [cytotoxic, partial curve, poor fit] | Potency (CASKI): active: 7.94 µM | Potency (Es-2): inconclusive: 39.8 µM [cytotoxic, single point] | Potency (Hek293T): active: 25.1 µM | Potency (JEG-3): active: 15.8 µM | Potency (OV90): active: 22.4 µM | Potency (PA-1): inconclusive: 39.8 µM [cytotoxic, single point] | Potency (SKOV3): inconclusive: 0.126 µM [cytotoxic, full curve, poor fit] | Potency (Tov-21-G): inconclusive: 35.5 µM [cytotoxic, single point]
